Experimental data taken from ChEMBL document CHEMBL2375291, “Discovery of a series of novel 5H-pyrrolo[2,3-b]pyrazine-2-phenyl ethers, as potent JAK3 kinase inhibitors” (Bioorg Med Chem Lett, 2013).

How the values were obtained:
[1] = target: T1, Tyrosine-protein kinase JAK2 (Homo sapiens, UniProt O60674)
[2] = target: JAK2/JAK1 (Homo sapiens, UniProt O60674+P23458); assay type: protein-complex assay
[3] = target: JAK3/JAK1 (Homo sapiens, UniProt P23458+P52333); assay type: protein-complex assay
[4] = target: T1, Tyrosine-protein kinase JAK2; remark: listed apart in the source

Row | IC50 [1] | IC50 [2] | IC50 [3] | IC50 [4] | SMILES
1 | 1000 nM |  |  |  | COc1cc(OC)cc(Oc2cnc3[nH]cc(C(=O)NC(C)C)c3n2)c1
2 | 2320 nM |  |  |  | Cc1ccccc1Oc1cnc2[nH]cc(C(=O)NC(C)C)c2n1
3 | 39 nM | > 30000 nM | 7410 nM | 23300 nM | CC(=O)N[C@@H]1CCc2ccc(Oc3cnc4[nH]cc(C(=O)N[C@@H](C(=O)N5CC(C#N)C5)C5CC5)c4n3)cc21
4 | 70 nM |  |  |  | CC(NC(=O)c1c[nH]c2ncc(Oc3ccccc3)nc12)C1CC1 (stereo not given)
5 | 1710 nM |  |  |  | CC(=O)N[C@H]1CCc2ccc(Oc3cnc4[nH]cc(C(=O)NC(C)C)c4n3)cc21
6 | 410 nM |  |  |  | Cc1cccc(Oc2cnc3[nH]cc(C(=O)NC(C)C)c3n2)c1
7 | 250 nM |  |  |  | CC(C)NC(=O)c1c[nH]c2ncc(Oc3ccccc3)nc12
8 | 84 nM | 14400 nM |  | 3610 nM | CC(=O)N[C@@H]1CCc2ccc(Oc3cnc4[nH]cc(C(=O)N[C@@H](C)C5CC5)c4n3)cc21
9 | 1010 nM |  |  |  | CC(=O)N[C@@H]1CCc2ccc(Oc3cnc4[nH]cc(C(=O)NC(C)C)c4n3)cc21
10 | 1210 nM |  |  |  | CCc1cccc(Oc2cnc3[nH]cc(C(=O)NC(C)C)c3n2)c1
11 | 900 nM |  |  |  | CC(C)NC(=O)c1c[nH]c2ncc(Oc3ccc(C#N)cc3)nc12
12 | 194 nM | > 30000 nM |  | 16200 nM | CC(=O)N[C@@H]1CCc2ccc(Oc3cnc4[nH]cc(C(=O)N[C@H](C)C5CC5)c4n3)cc21
13 | 1350 nM |  |  |  | CC(=O)N[C@@H]1CCc2ccc(Oc3cnc4[nH]cc(C(=O)N[C@H](C)C(=O)N5CC(C#N)C5)c4n3)cc21
